Measured values published in PubChem BioAssay AID651820 (National Center for Advancing Translational Sciences (NCATS), 2012).
Hit rate of the full screen: of about 340,000 compounds, about 12,000 (3.5%) were called active. The shares of active, inactive and inconclusive entries below differ from those in the screen. The call rests on the fitted dose curve; in most records, active means well fitted inhibition curve with a large enough effect; inconclusive means small, poorly fitted or top-dose-only effect, or another doubt; inactive means no such curve, though single readings can be large or run the other way. No potency is given beside an inconclusive call; the fits are too rough.

Experiment: qHTS Assay for Inhibitors of Hepatitis C Virus (HCV)
Settings: Huh7.5.1 HCVcc-Cre (HCVcc is cell-culture hepatitis C virus) infection, luciferase reporter, 44 h; activity change, negative = inhibition: at 41.8 µM (top of the series) unless noted
Procedure, shortened: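 Whole-lifecycle infectious HCVcc-Cre system; cells 1,000/well, compound then virus (~0.5 moi) added 4 h after plating, 44 h culture. Luciferase read 15 sec following 15 min substrate incubation, room temp.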
On the % scale 0 is the no-effect control and ±100 the full control effect; potency means the concentration at half of the fitted maximal effect; tags describe the fitted curve by direction and shape.

SMILES | Potency | activity change, negative = inhibition
CCOC(=O)c1ccc(Nc2ccc(-c3ccc(OC)c(OC)c3)nn2)cc1 | inconclusive [inhibitor, full curve] | 
COc1cccc(NC(=O)CN(C)CC(=O)Nc2ccccc2-c2ccccc2)c1 | inconclusive [inhibitor, partial curve] | 
Cc1cc(NCCOCCO)n2ncc(-c3ccc(Cl)cc3)c2n1 | inconclusive [inhibitor, single point] | 
C=CCC[C@H](Cc1ccc(F)cc1)C(=O)OC[C@H](C)NC(=O)[C@@H](CC=C)CC(=O)N[C@H](CO)Cc1ccccc1 | inconclusive [inhibitor, single point] | 
Cc1ccc2nc(-c3ccccc3)cc(C(=O)N3CCN(S(=O)(=O)c4c(C)noc4C)CC3)c2c1 | inconclusive [inhibitor, full curve] | 
O=C(CCNS(=O)(=O)c1cccs1)N1CCN(c2cccc(C(F)(F)F)c2)CC1 |  | inactive: -2.04%
Cc1ccccc1-n1nnnc1SC(C)C(=O)NC1CCCc2ccccc21 (configuration not stated) | inconclusive [inhibitor, single point] | 
O=CNc1c(Br)cc2c(c1Br)Cc1cc(Br)ccc1-2 | inconclusive [inhibitor, partial curve] | 
COc1ccc(-n2nc([N+](=O)[O-])c(=NCCc3ccc(Cl)cc3)n2O)cc1 |  | inactive: -2.38%
CN(C)c1nc(C=C(C#N)C#N)c(Cl)n1-c1ccc(F)cc1 | inconclusive [inhibitor, single point] | 
COc1cc(Cl)c(C)cc1Nc1ncccn1 | inconclusive [inhibitor, partial curve] | 
Cc1ccc(N(C)S(=O)(=O)c2cc(-c3cnc(C4CC4)o3)ccc2C)cc1 | active: 3.16 µM | 
COc1ccc(NS(=O)(=O)c2cc(NC(=O)c3cc(F)c(F)cc3Cl)ccc2N2CCOCC2)cc1 | inconclusive [inhibitor, full curve] | 
COc1ccccc1-c1c(C)oc2cc(OC(=O)c3ccco3)ccc2c1=O |  | inactive: -12.5%
Cc1ccc(S(=O)(=O)N2CCOCC2)cc1C(=O)N1CCN(c2ccc(C(F)(F)F)cn2)CC1 | active: 10 µM | 
COC(=O)C1=C(c2ccccc2OCc2ccccc2)C[C@@H]2CC[C@H]1N2C(=O)NCc1ccc(OC)c(OC)c1 | inconclusive [inhibitor, partial curve] | 
CC(=O)C1CCC2C3CC(C)=C4CC(O)CCC4(C)C3CCC12C (configuration not stated) | inconclusive [inhibitor, single point] | 
CCCCCCC(=O)Nc1cc2c(C)cc(=O)oc2cc1C | inconclusive [inhibitor, single point] | 
COc1ccc(-c2nn(-c3ccccc3)cc2/C=C/C(=O)N(C)CC(=O)Nc2cccc(F)c2)cc1OC | inconclusive [inhibitor, single point] | 
CSc1nnc(-c2sc3cc(Cl)ccc3c2Cl)n1C | inconclusive [inhibitor, partial curve] | 
COc1ccc(NS(=O)(=O)c2cc(NC(=O)c3ccc(=O)[nH]c3)ccc2C)cc1 |  | inactive: -21%
CN(C)/C=C/C(=O)c1ccc2noc(-c3ccccc3)c2c1 | inconclusive [inhibitor, single point] | 
Nc1nc(-c2ccc3c(c2)NC(=O)CO3)cs1 | inconclusive [inhibitor, single point] | 

SMILES | Potency | activity change, negative = inhibition
O=S(=O)(Nc1cc(Sc2cccc3cccnc23)c(O)c2ccccc12)c1ccccc1 | inconclusive [inhibitor, single point] | 
COc1ccc(-c2c[n+](CC(=O)OC3CC(C)CCC3C(C)C)c3n2CCC3)cc1 (configuration not stated) | inconclusive [inhibitor, partial curve] | 
Cc1cc(C)c(S(=O)(=O)Nc2ccccc2-c2ccccc2)c(C)c1 | inconclusive [inhibitor, partial curve] | 
Cc1ccc(NC(=O)COC(=O)Cn2ccc(=O)[nH]c2=O)cc1C |  | inactive: 18%
CCn1c(SCC(=O)N/N=C/C(C)=C/c2ccco2)nnc1-c1ccccc1 |  | inactive: -1.44%
CN(C)S(=O)(=O)c1cc(NC(=O)c2ccc(-n3ccnc3)c([N+](=O)[O-])c2)ccc1Cl | inconclusive [inhibitor, full curve] | 
COc1ccc(C(=O)/C=C/Nc2cc(C)on2)cc1 | inconclusive [inhibitor, partial curve] | 
Cc1nn(-c2ccccc2)c(C)c1/C=N/NC(=O)CSc1nnc(SCc2ccccc2Cl)s1 | inconclusive [inhibitor, single point] | 
COc1ccc(N2CCN(C(=O)c3cc(=O)c4cc(C)c(C)cc4o3)CC2)cc1 |  | inactive: -8.5%
COc1ccc(NC(=O)c2cc(S(=O)(=O)N3CCc4ccccc43)cn2C)cc1OC | inconclusive [inhibitor, full curve, poor fit] | 
CN(Cc1cnccn1)Cc1c(C(=O)N2CCc3ccccc3C2)nc2ccc(Cl)cn12 |  | inactive: -20.8%
CCCCn1c(-c2ccc(OC)cc2)nc2c(=O)n(C)c(=O)[nH]c21 |  | inactive: 10.4%
O=C(NCc1ccncc1)C1CCCN(S(=O)(=O)c2cc(Cl)ccc2Cl)C1 (configuration not stated) | inconclusive [inhibitor, single point] | 
S=C1NCCc2ccccc2C1c1ccccc1 (configuration not stated) |  | inactive: -7.28%
Cc1oc(-c2ccccc2)cc1C(=O)Nc1ccc(N(C)C)cc1 | inconclusive [inhibitor, single point] | 
COc1cc(C(=O)N(Cc2ccco2)Cc2cc3ccccc3[nH]c2=O)cc(OC)c1OC | inconclusive [inhibitor, single point] | 
COc1ccccc1NS(=O)(=O)c1cc(NC(=O)CN2C(=O)NC3(CCCC3)C2=O)ccc1C | inconclusive [inhibitor, single point] | 
O=C(CNC(=O)c1ccco1)N/N=C/c1c[nH]c2ccccc12 |  | inactive: 3.05%
O=C(c1ccc(S(=O)(=O)Cc2ccccc2Cl)c([N+](=O)[O-])c1)N1CCN(c2ccccn2)CC1 | inconclusive [inhibitor, single point] | 
O=c1onc(-c2ccc(Cl)cc2Cl)n1-c1cccnc1 |  | inactive: 11%
CC(C)(CC(=O)O)CC(=O)Nc1ccc(Cl)c(Cl)c1 | inconclusive [inhibitor, partial curve] | 
COCCNC(=O)COC(=O)C1=Cc2ccccc2OC1 | active: 12.6 µM | 
O=C(NCc1ccccc1)c1onc(CSc2ccc(Cl)cc2)c1C(=O)NCC1CC1 | inconclusive [inhibitor, single point] | 

SMILES | Potency | activity change, negative = inhibition
O=C(Nc1ccccc1-c1nc2ccccc2s1)c1cccnc1Cl | active: 35.5 µM | 
Oc1ccc(/C=N/Nc2cc(N3CCCC3)nc(N3CCCC3)n2)cc1 | inconclusive [inhibitor, full curve] | 
CCOC(=O)N1CCC(N2Cc3cccc(C(=O)NCc4ccccc4OC)c3C2=O)CC1 | inactive | 
COc1ccccc1Nc1ncnc2ccc(C)cc12 | inconclusive [inhibitor, partial curve, poor fit] | 
Cc1cccc(CN2CCCC(C(=O)c3ccc4c5c(cccc35)CC4)C2)n1 (configuration not stated) | inconclusive [inhibitor, single point] | 
CCCn1c2ccccc2c2nnc(SCC(=O)Nc3cc(C)on3)nc21 |  | inactive: -22.9%
Cc1ccc(CNc2ccc([N+](=O)[O-])cc2C(N)=O)cc1 | inconclusive [inhibitor, single point] | 
COc1ccc(-n2nnc3c(SCC(=O)N4CCCc5ccccc54)ncnc32)cc1 | inconclusive [inhibitor, single point] | 
CCOC(=O)C1=CN(Cc2cccc(F)c2)S(=O)(=O)N(C)C1c1cccc(OC)c1 (configuration not stated) | inconclusive [inhibitor, partial curve] | 
O=[N+]([O-])c1ccc(N2CCN(c3ccc(O)cc3)CC2)cn1 | inconclusive [inhibitor, single point] | 
COc1cc(C(=O)Nc2ccc(S(=O)(=O)N3CCOCC3)cc2)c([N+](=O)[O-])cc1OC | inconclusive [inhibitor, single point] | 
Cc1cccc(C)c1N=C1NN=C(c2ccccc2F)CS1 | inconclusive [inhibitor, single point] | 
CCc1ccc(-c2csc(-c3c[nH]c4ccccc34)n2)cc1 | inconclusive [inhibitor, single point] | 
CCN(CC)CCOc1cccc(C(C)C)c1 |  | inactive: -11.2%
CCOC(=O)c1cc2c(=O)n3ccccc3nc2n(CCCOC)c1=NC(C)=O | inconclusive [inhibitor, single point] | 
CCN(CC)S(=O)(=O)c1ccc(N2CCOCC2)c(NC(=O)COc2ccccc2)c1 | inconclusive [inhibitor, single point] | 
COc1ccc(-c2nc(CCNC(=O)c3cccs3)cs2)cc1 | active: 35.5 µM | 
Cc1csc(NC(=O)/C=C/c2ccc3c(c2)OCO3)n1 | inconclusive [inhibitor, partial curve] | 
O=C(C(=O)N1CCN(c2ccccc2)CC1)c1cn(CC(=O)N2CCCCCC2)c2ccccc12 | inconclusive [inhibitor, single point] | 
CC(=O)c1cc(C#N)c(SCCC(C)C)nc1C | inconclusive [inhibitor, full curve] | 
CC(C)(CNC(=O)c1sc2cc(Cl)ccc2c1Cl)N1CCOCC1 | inconclusive [inhibitor, single point] | 
